Test results taken from the supplement of paper PMC10338343.
± gives the standard deviation. This is a selection; strong and weak results do not stand in their true shares.

Tested on: MIWI (PIWIL1) piRISC loaded with L1MC piRNA (30 nt)
Test: pre-steady-state target cleavage rate (min^-1); MIWI and MILI are mouse PIWI proteins and EfPiwi is from a freshwater sponge; tags in brackets are library labels; higher = faster piRNA-guided slicing of the target
Details: guide: L1MC piRNA 5'p-UAACUAAAUACUAUGCAAGCUGUAGGUCCU
Summary of the method: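 In HEPES–potassium acetate buffer at 33 °C, […] transcribed, DNA-blocked target RNA library was mixed with 1 nM active affinity-purified piRISC carrying one synthetic guide, with or without 500 nM GTSF1 partner protein, for 0–8 or 0–960 min. Uncleaved targets were sequenced and normalised to depth and to weakly complementary targets; three trials were pooled and k3 was capped at 0.0001 min^-1. The pre-steady-state cleavage rate followed from a burst-and-steady-state fit.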

[1] = auxiliary factor: 500 nM mouse GTSF1
[2] = auxiliary factor: none (no GTSF1)
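Also: 1 nM active piRISC with 0.1 nM target library at 33 °C single turnover.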

Sequence | pre-steady-state target cleavage rate [1] | pre-steady-state target cleavage rate [2]
UCCUGCAACAGCAUGCAUAGUAUUUAGUUA | 1.36 ± 0.087 | 0.0331 ± 0.0088
UCCUGCUACUGCUUGGAUAGUAUUUAGUUA | 0.969 ± 0.077 | 0.0353 ± 0.0055
UGGACCUACAGCUUCCAUAGUAUUUAGUAA | 0.0222 ± 0.0064 | 0.00204 ± 0.002
UGGACCACAGCUUGCAUAGUAUUUAGUUA | 1.47 ± 0.083 | 0.0744 ± 0.015
UCCUGGUACAGCUUGGAUUGUAUUUAGUUA | 0.0415 ± 0.013 | 0.00857 ± 0.0027
UGGUGGUACAGCUUGCAUAGUAUUUAGAAA | 0.195 ± 0.03 | 0.0046 ± 0.0019
UCCUGGAUCAGCUUGCAUAGUAUUUAGUGUA | 0.79 ± 0.047 | 0.033 ± 0.007
UCCACCUACAGGAAGCAUAGUAUUUAGUUA | 0.767 ± 0.07 | 0.00581 ± 0.0017
UCCUGGUACAGUUUGCAUAGUAUUUAGUUA | 0.706 ± 0.044 | 0.0392 ± 0.0063
UGGACCUAGUGCUUGCAUAGUAUUUAGUUA | 0.979 ± 0.061 | 0.0419 ± 0.0095
UGGACCUUCAGCUUCCAUAGUAUUUAGUUA | 0.0296 ± 0.0063 | 0.00372 ± 0.0019
UCCUGGAUGUGCUUGCUUAGUAUUUAGUAA | 0.0383 ± 0.008 | 0.0104 ± 0.0033
UCCUGCUACAGCAUGCAUAGUAUUUAGUUA | 1.21 ± 0.086 | 0.0207 ± 0.0053
UCCUGGAACAGCUUGCAUAGUAUAAUGUUA | 0.196 ± 0.029 | 0.0128 ± 0.0033
UCCUCCUACAGCUUGCAUAGAAUUUAGAUA | 0.189 ± 0.03 | 0.00879 ± 0.0022
UCCUGGUACAGCUUGCUAAGUAUUUAGUAA | 0.0498 ± 0.016 | 0.00416 ± 0.0022
UCCUGGAUCAGGUUGCAUAGUAUUUACUUA | 0.162 ± 0.028 | 0.00557 ± 0.0024
UCCUGGAUCAGCAUGCAUACUAUUUAGUUA | 0.247 ± 0.017 | 0.00941 ± 0.0023
UCCUGGUACAGCUUGCAUAGAAAUUAGUUA | 0.0644 ± 0.015 | 0.00499 ± 0.0025
UCCUGGAACAGCUUGCAAAGUAUUUAGAAA | 0.426 ± 0.062 | 0.00744 ± 0.0026

Sequence | pre-steady-state target cleavage rate [1] | pre-steady-state target cleavage rate [2]
UCCUGGAUGUGCGUGCAUAGUAUUUAGUUA | 0.255 ± 0.027 | 0.025 ± 0.0072
UGGACCUACAGCAUGCAUAGUAUAUAGUUA | 0.976 ± 0.069 | 0.0194 ± 0.0041
UCCACCUACAGCUUGCAUACUAUUUAGAAA | 0.113 ± 0.021 | 0.00399 ± 0.0022
UCCUGGAAGAGCUUGCAUAGUAUUUACUUA | 0.134 ± 0.026 | 0.0136 ± 0.0036
UCCUGGAUCAGCUUGCAUAGUAUUGAGUUA | 0.651 ± 0.064 | 0.0365 ± 0.0077
UCGACCUACAGCUUGCAUAGUUAUUAGUUA | 0.191 ± 0.018 | 0.0154 ± 0.0025
UCCACCUACACGUUGCAUAGUAUUUAGUAA | 0.503 ± 0.036 | 0.00865 ± 0.002
UGGACCUUCAGCUUGCAUAGAAUUUAGUUA | 0.367 ± 0.023 | 0.0249 ± 0.0085
UCCUCGUUCAGCUUGCAUAGUAUUUAGUUA | 1.4 ± 0.041 | 0.0653 ± 0.014
AGGACCUACUCCUUGCAUAGUAUUUAGUAA | 0.689 ± 0.056 | 0.0403 ± 0.0084
UCCUGGAACAGCUUUCAUAGUAUUUAGUUA | 0.453 ± 0.026 | 0.019 ± 0.0045
AGGACCUACAGCUUGCAAAGUAUUUUCAAA | 0.291 ± 0.042 | 0.00479 ± 0.0021
UCCUCCUACAGCUUGCAUAGUUUUUUGUUA | 0.253 ± 0.024 | 0.0262 ± 0.0061
UCCACCUACACCUUGCAUAGUAUUUAGUUA | 0.959 ± 0.041 | 0.0526 ± 0.0089
UCCUGCUACUGCUUGCAUAGAAUUUAGUUA | 0.383 ± 0.03 | 0.019 ± 0.0057
AGGACCUACAGAUUGCAUAGUAUUUAGUUA | 1.24 ± 0.091 | 0.0822 ± 0.017
UCCUGGAUGUCCUUGCAUAGUAUUUACGUUA | 0.0514 ± 0.0098 | 0.00979 ± 0.0029
UCCUGGAUGUGCUUGCAUAGUAAUUAGUAA | 0.03 ± 0.0095 | 0.0071 ± 0.0027
UGGACCUAGAGCAUGCAUAGUAUUUAGUUA | 0.952 ± 0.059 | 0.0242 ± 0.0069
UCCUGGAUGAGCUUGCAUAGAAUUUUGUUA | 0.118 ± 0.028 | 0.0105 ± 0.0047

Sequence | pre-steady-state target cleavage rate [1] | pre-steady-state target cleavage rate [2]
UCGACCUACAGCUACCAUAGUAUUUAGUUA | 0.559 ± 0.035 | 0.00309 ± 0.0028
UCCUGCUAGAGCUUGGAUAGUAUUUAGUUA | 0.527 ± 0.042 | 0.0377 ± 0.0059
AGGACCUACAGCUUGCAUAGUAUUUAGUUA [g2:g30:cont:t1A] | 1.35 ± 0.057 | 0.0941 ± 0.015
AGGACCCACAGCUUGCAUAGUAUUUAGUUA | 1.47 ± 0.093 | 0.0682 ± 0.0093
UCCUGCUACAGCUUGCAUAGUAUUCAGUUA | 0.601 ± 0.047 | 0.0188 ± 0.0045
AGGAGGUACAGCUUGCAUAGUAUUUAGUAA | 0.803 ± 0.079 | 0.0437 ± 0.0095
UCCACAUACAGCUUGCAUAGUAUUUAGUUA | 1.24 ± 0.062 | 0.0589 ± 0.0096
UCCUCCUACAGCUUGCAUUGUAAUUAGUUA | 0.468 ± 0.022 | 0.009 ± 0.0025
AGGACCAACAGCUUGCAUAGUAUAUAGUUA | 0.775 ± 0.054 | 0.0604 ± 0.013
UCCUCCUACAGCUUGCUUAGUAUUUUGUUA | 0.663 ± 0.035 | 0.0126 ± 0.0024
UGGACCUUCAGCUUGCAUAGUAUUUACAAA | 0.286 ± 0.035 | 0.00849 ± 0.0031
UCCUGCUACAGCUUGCAAAGAAUUUAGUUA | 0.234 ± 0.021 | 0.0127 ± 0.005
UCCACCUACAGCUUGGUUAGUAUUUAGUUA | 1.13 ± 0.053 | 0.00841 ± 0.0021
UCCUGGAACAGCUUGCAUAGUAUUAUAGUUA | 0.625 ± 0.041 | 0.0227 ± 0.005
UCCUGCUAACAGCUUGCAUAGUAUUUAGUUA | 0.617 ± 0.052 | 0.0487 ± 0.0083
UGCACCUACAGCUUGCAAAGUAUUUAGUUA | 1.23 ± 0.08 | 0.0409 ± 0.0074
UCCUGCUACAGCAUGCAUAGUAUUUAGAUA | 0.332 ± 0.037 | 0.00491 ± 0.0026
UCGACCUAGAGCUUGCAAAGUAUUUAGUUA | 1.26 ± 0.04 | 0.0315 ± 0.0064
UCCUGGUACAGCUUGCAUAGAAUUUAGAUA | 0.0786 ± 0.026 | 0.00495 ± 0.0029
UGGACCUACAGCUUGCAUAGUACUUAGUUA | 1.09 ± 0.074 | 0.0405 ± 0.0076
